Test results: PubChem BioAssay (Tox21)
Inconclusive means that the source gave no clear call. Such entries were picked first, then a sample of the others. For some of these results: Potencies beside an inconclusive call are fits to weak or partial responses and may not hold up. Activity calls are given as the source filed them. Unless noted, calls come from the whole dose curve; as a rule, active = well fitted curve in the direction sought with a large enough effect in the repeat runs; inconclusive = weak or mixed curves; inactive = no such curve, though single readings can be large; an effect the other way counts as inactive or inconclusive.

How the values were obtained:
[1] = qHTS assay to identify small molecule antagonists of the peroxisome proliferator-activated receptor gamma (PPARg) signaling pathway - cell viability counter screen (AID 743194); settings: PPARg-bla HEK293H viability, CellTiter-Glo luminescence, 17 h, co-treated with 50 nM rosiglitazone; activity change, negative = cytotoxicity: at 62.6 µM (top of the series) unless noted; note: potency is the fitted concentration of half-maximal effect; nearly all actives have a fitted effect of over 55% in size
Procedure, shortened: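 Cytotoxicity counter screen in PPARg-bla HEK293H cells, same wells as reporter assay. Compounds plus 50 nM rosiglitazone (final) for 17 h at 37 C, then viability read by CellTiter-Glo luminescence.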

[2] = qHTS assay for small molecule agonists of the antioxidant response element (ARE) signaling pathway (AID 743202; active = well fitted activation curve with a large enough effect in the signal ratio in the repeat runs, not every such curve was filed as active; inconclusive = weak or mixed curves, or effect the other way; inactive = no such curve, though single readings can be large or run the other way; the % refers to the signal ratio; note: potency is the fitted concentration of half-maximal effect); settings: HepG2 ARE-bla reporter, beta-lactamase FRET, 16 h; activation: at 73.3 µM (top of the series) unless noted
Procedure, shortened: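 Agonist mode reporter screen: HepG2 cells with ARE-controlled beta-lactamase are incubated with test compounds for 16 h at 37 C, and beta-lactamase activity is measured as fluorescence of cleaved B/G FRET substrate.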

[3] = qHTS assay for small molecule activators of the heat shock response signaling pathway (AID 743210; active = well fitted activation curve with a large enough effect in the signal ratio in the repeat runs, with a control signal flat, not every such curve was filed as active; inconclusive = weak or mixed curves; the % refers to the signal ratio;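 note: HeLa cells with beta-lactamase reporter driven by heat shock elements; % is set by controls: 0 for no effect and ±100 for the full control effect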); settings: HeLa HSE-bla reporter, beta-lactamase ratio, 5 h; activation: at 62.6 µM (top of the series) unless noted
Procedure, shortened: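 Quantitative high-throughput format using an engineered HeLa line in which heat shock response elements drive beta-lactamase; after 5 h with compound, cells received a B/G FRET substrate and fluorescence was read.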

[4] = qHTS assay to identify small molecule agonists of the peroxisome proliferator-activated receptor delta (PPARd) signaling pathway - cell viability counter screen (AID 743211); settings: PPARd-bla HEK293H viability, CellTiter-Glo luminescence, 17 h; activity change, negative = cytotoxicity: at 62.6 µM (top of the series) unless noted; note: % is set by controls: 0 for no effect and ±100 for the full control effect; nearly all actives have a fitted effect of over 55% in size
Procedure, shortened: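 Counter screen for cytotoxicity run in parallel with the PPARd reporter screen. Beta-lactamase reporter HEK293H cells exposed to compounds 17 h; ATP-based CellTiter-Glo luminescence quantified viability.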

[5] = qHTS assay for small molecule agonists of the antioxidant response element (ARE) signaling pathway - cell viability counter screen (AID 743203; calls by dose curve; note: potency is the fitted concentration of half-maximal effect; nearly all actives have a fitted effect of over 55% in size); settings: ARE-bla HepG2 viability, CellTiter-Glo luminescence, 16 h; viability change, negative = cytotoxic: at 73.3 µM (top of the series)
Procedure, shortened: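 Seeded at 2,000 cells/well, ARE-bla HepG2 cells were incubated 5 hrs before compound addition. After 16 hrs of treatment at 37C with 5% CO2, CellTiter-Glo reagent was added and luminescence read 30 min later.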

[6] = qHTS assay for small molecule activators of the heat shock response signaling pathway - cell viability counter screen (AID 743209); settings: HSE-bla HeLa viability, CellTiter-Glo luminescence, 5 h; activity change, negative = cytotoxicity: at 62.6 µM (top of the series) unless noted; note: potency is the fitted concentration of half-maximal effect; nearly all actives have a fitted effect of over 50% in size
Procedure, shortened: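 First, HSE-bla HeLa cells were seeded at 1500 cells/well and kept overnight at 37 C. Next, compounds were pinned in and incubated 5 h. After the FRET substrate step, CellTiter-Glo was added and luminescence read 30 min later.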

[7] = target: Peroxisome proliferator-activated receptor delta (Homo sapiens) (UniProt Q03181); experiment: qHTS assay to identify small molecule agonists of the peroxisome proliferator-activated receptor delta (PPARd) signaling pathway (AID 743212; calls by dose curve; note: potency is the fitted concentration of half-maximal effect); settings: HEK293H PPARd-UAS-bla, beta-lactamase FRET ratio, 17 h; activation: at 62.6 µM (top of the series) unless noted
Chain of UniProt Q03181 (Q03181 whole entry, looked up): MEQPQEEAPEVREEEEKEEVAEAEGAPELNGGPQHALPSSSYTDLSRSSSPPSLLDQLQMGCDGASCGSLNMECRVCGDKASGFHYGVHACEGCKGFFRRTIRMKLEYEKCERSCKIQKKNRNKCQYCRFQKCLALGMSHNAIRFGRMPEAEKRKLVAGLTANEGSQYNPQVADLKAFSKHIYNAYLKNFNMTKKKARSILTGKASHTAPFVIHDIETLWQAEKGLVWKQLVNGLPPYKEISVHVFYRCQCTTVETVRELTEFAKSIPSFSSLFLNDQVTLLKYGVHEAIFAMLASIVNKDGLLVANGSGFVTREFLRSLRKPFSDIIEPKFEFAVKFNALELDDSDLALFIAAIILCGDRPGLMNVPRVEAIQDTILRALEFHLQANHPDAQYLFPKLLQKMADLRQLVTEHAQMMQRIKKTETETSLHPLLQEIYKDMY
Procedure, shortened: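 Quantitative high-throughput agonist screen in a HEK293H beta-lactamase reporter line under UAS control. Compounds in DMSO, at 37 C. Fluorescence read after 2 h with FRET substrate at room temperature.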

[8] = qHTS assay to identify small molecule antagonists of the peroxisome proliferator-activated receptor delta (PPARd) signaling pathway - cell viability counter screen (AID 743213); settings: PPARd-bla HEK293H viability, CellTiter-Glo luminescence, 17 h; viability change, negative = cytotoxic: at 62 µM (top of the series) unless noted; note: potency is the fitted concentration of half-maximal effect; nearly all actives have a fitted effect of over 50% in size
Procedure, shortened: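 PPARd-bla HEK293H cells were treated with compounds plus agonist L165041 (300 nM final) for 17 h at 37 C. Viability was then read in the same wells by CellTiter-Glo luminescence after 30 min at room temperature.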

[9] = target: Peroxisome proliferator-activated receptor delta (Homo sapiens) (UniProt Q03181); experiment: qHTS assay to identify small molecule antagonists of the peroxisome proliferator-activated receptor delta (PPARd) signaling pathway (AID 743215; active = well fitted inhibition curve with a large enough effect in the signal ratio in the repeat runs, not every such curve was filed as active; inconclusive = weak or mixed curves, or effect the other way; inactive = no such curve, though single readings can be large or run the other way; the % refers to the signal ratio;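 note: cells stimulated with agonist L165041 at 300 nM final during compound exposure; potency is the fitted concentration of half-maximal effect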); settings: HEK293H PPARd-UAS-bla, beta-lactamase FRET ratio, antagonist, 17 h; ratio activity, negative = inhibition: at 62 µM (top of the series) unless noted
Procedure, shortened: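 Inhibition of L165041-driven (300 nM final) PPARd signaling is scored in HEK293H UAS-bla cells. Exposure lasts 17 h at 37 C; beta-lactamase activity is then read by FRET substrate fluorescence after 2 h at room temperature.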

[10] = target: Bile acid receptor (Homo sapiens) (UniProt Q96RI1); experiment: qHTS assay to identify small molecule antagonists of the farnesoid-X-receptor (FXR) signaling pathway (AID 743217; active = well fitted inhibition curve with a large enough effect in the signal ratio in the repeat runs, not every such curve was filed as active; inconclusive = weak or mixed curves, or effect the other way; inactive = no such curve, though single readings can be large or run the other way; the % refers to the signal ratio; note: potency is the fitted concentration of half-maximal effect); settings: HEK293T FXR-UAS-bla, beta-lactamase ratio, CDCA-stimulated, 16 h; activity change, negative = inhibition: at 62.6 µM (top of the series) unless noted
Chain of UniProt Q96RI1 (Q96RI1 whole entry, looked up): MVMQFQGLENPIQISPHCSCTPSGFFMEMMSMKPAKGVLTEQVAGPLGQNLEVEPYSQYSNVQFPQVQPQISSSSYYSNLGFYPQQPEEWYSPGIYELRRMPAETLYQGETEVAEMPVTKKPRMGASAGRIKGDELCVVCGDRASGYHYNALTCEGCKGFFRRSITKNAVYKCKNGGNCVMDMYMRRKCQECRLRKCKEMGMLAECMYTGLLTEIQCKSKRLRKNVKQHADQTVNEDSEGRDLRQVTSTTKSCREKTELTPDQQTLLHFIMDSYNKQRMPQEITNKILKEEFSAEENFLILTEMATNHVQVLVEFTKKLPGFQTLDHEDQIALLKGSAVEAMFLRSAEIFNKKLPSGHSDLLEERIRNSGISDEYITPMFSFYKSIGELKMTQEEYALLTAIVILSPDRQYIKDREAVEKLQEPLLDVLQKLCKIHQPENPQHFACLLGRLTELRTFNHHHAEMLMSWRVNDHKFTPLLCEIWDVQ
Procedure, shortened: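 Antagonist mode against 50 uM (final) chenodeoxycholic acid stimulation in FXR-bla HEK 293T cells, 16 h at 37 °C. Inhibition detected as reduced beta-lactamase activity via LiveBLAzer B/G FRET fluorescence after 2 h at room temperature.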

[11] = qHTS assay to identify small molecule agonists of the farnesoid-X-receptor (FXR) signaling pathway - cell viability counter screen (AID 743218); settings: FXR-bla HEK293T viability, CellTiter-Glo luminescence, 16 h; viability change, negative = cytotoxic: at 62.6 µM (top of the series) unless noted; note: nearly all actives have a fitted effect of over 45% in size; note: potency is the fitted concentration of half-maximal effect; for viability change, negative = cytotoxic: % is set by controls: 0 for no effect and ±100 for the full control effect
Procedure, shortened: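 Cytotoxicity counter-screen run in parallel, same wells: FXR-UAS-bla HEK 293T cells dosed 16 h at 37 C, viability read by CellTiter-Glo luminescence after 30 min at room temperature.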

[12] = target: Bile acid receptor (Homo sapiens) (UniProt Q96RI1); experiment: qHTS assay to identify small molecule agonists of the farnesoid-X-receptor (FXR) signaling pathway (AID 743220; active = well fitted activation curve with a large enough effect in the signal ratio in the repeat runs, not every such curve was filed as active; inconclusive = weak or mixed curves, or effect the other way; the % refers to the signal ratio; note: potency is the fitted concentration of half-maximal effect); settings: HEK293T FXR-UAS-bla, beta-lactamase FRET ratio, 16 h; activation: at 62.6 µM (top of the series) unless noted
Procedure, shortened: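 Beta-lactamase reporter under UAS control in GeneBLAzer FXR HEK 293T cells (5000/well) measured with LiveBLAzer FRET substrate after 2 h at room temperature. Compound exposure lasted 16 h at 37C.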

[13] = qHTS assay to identify small molecule antagonists of the farnesoid-X-receptor (FXR) signaling pathway - cell viability counter screen (AID 743221; active = well fitted cell-killing curve with a large enough effect in the repeat runs, not every such curve was filed as active; inconclusive = weak or mixed curves, or effect the other way; inactive = no such curve, though single readings can be large or run the other way; note: potency is the fitted concentration of half-maximal effect; nearly all actives have a fitted effect of over 50% in size); settings: FXR-bla HEK293T viability, CellTiter-Glo luminescence, 16 h; activity change, negative = cytotoxicity: at 62.6 µM (top of the series) unless noted
Procedure, shortened: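 Multiplexed counter screen: viability of FXR-bla HEK 293T cells under agonist stimulation by chenodeoxycholic acid (50 uM, final) and test compound for 16 h at 37 C, measured by CellTiter-Glo luminescence in the reporter wells.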

[14] = qHTS assay to identify small molecule agonists of the vitamin D receptor (VDR) signaling pathway - cell viability counter screen (AID 743224); settings: VDR-bla HEK293T viability, CellTiter-Glo luminescence, 16 h; activity change, negative = cytotoxicity: at 62.6 µM (top of the series); note: potency is the fitted concentration of half-maximal effect; nearly all actives have a fitted effect of over 50% in size
Procedure, shortened: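 Viability is measured in the same wells as the VDR-bla reporter assay: after 16 h compound treatment and 2 h substrate loading, CellTiter-Glo is added and luminescence read 30 min later.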

[15] = target: Peroxisome proliferator-activated receptor gamma (Homo sapiens) (UniProt P37231); experiment: qHTS assay to identify small molecule antagonists of the peroxisome proliferator-activated receptor gamma (PPARg) signaling pathway (AID 743191; calls by dose curve; note: % is set by controls: 0 for no effect and ±100 for the full control effect; nearly all actives have a fitted effect of over 30% in size); settings: HEK293H PPARg-UAS-bla, beta-lactamase ratio, antagonist, 17 h; ratio activity, negative = inhibition: at 62.6 µM (top of the series) unless noted
Chain of UniProt P37231 (P37231 whole entry, looked up): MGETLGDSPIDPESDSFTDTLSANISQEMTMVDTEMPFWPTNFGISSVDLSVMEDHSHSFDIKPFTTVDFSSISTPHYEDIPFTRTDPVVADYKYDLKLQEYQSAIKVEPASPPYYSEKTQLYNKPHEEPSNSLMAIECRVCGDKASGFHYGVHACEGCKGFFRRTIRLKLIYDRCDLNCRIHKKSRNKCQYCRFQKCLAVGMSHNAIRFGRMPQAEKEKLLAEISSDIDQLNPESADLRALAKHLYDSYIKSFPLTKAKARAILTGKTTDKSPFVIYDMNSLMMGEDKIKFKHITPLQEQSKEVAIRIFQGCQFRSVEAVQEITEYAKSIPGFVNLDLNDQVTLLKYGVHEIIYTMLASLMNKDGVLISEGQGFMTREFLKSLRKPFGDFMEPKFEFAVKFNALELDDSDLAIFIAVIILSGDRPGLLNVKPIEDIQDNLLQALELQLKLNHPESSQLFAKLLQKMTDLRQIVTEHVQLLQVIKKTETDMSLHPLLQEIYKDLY
Procedure, shortened: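 GeneBLAzer PPARg UAS-bla HEK293H cells, 5 h post-plating, exposed to compounds 17 h at 37C. LiveBLAzer B/G FRET substrate added for 1 h at room temperature; beta-lactamase reporter read by fluorescence intensity.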

[16] = target: Vitamin D3 receptor (Homo sapiens) (UniProt P11473); experiment: qHTS assay to identify small molecule agonists of the vitamin D receptor (VDR) signaling pathway (AID 743222; calls by dose curve; note: % is set by controls: 0 for no effect and ±100 for the full control effect); settings: HEK293T VDR-UAS-bla, beta-lactamase FRET ratio, 16 h; activation: at 63.5 µM (top of the series) unless noted
Chain of UniProt P11473 (P11473 whole entry, looked up): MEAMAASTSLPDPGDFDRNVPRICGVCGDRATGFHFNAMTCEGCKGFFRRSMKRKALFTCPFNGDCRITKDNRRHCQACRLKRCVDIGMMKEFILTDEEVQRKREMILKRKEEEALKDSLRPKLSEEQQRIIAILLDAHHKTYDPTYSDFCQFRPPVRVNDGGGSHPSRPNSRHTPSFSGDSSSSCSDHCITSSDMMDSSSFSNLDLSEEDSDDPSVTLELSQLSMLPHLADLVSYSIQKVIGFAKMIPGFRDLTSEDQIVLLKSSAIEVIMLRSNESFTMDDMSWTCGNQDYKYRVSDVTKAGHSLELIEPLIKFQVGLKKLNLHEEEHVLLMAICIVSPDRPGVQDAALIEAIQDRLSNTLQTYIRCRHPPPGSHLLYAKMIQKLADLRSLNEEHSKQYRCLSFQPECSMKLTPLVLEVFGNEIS
Procedure, shortened: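 Quantitative HTS agonist-mode screen: compounds in DMSO were pin-transferred onto VDR-bla cells and incubated 16 h at 37C, 5% CO2. Reporter activity was detected with LiveBLAzer B/G FRET substrate after 2 h at room temperature.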
Tags give direction and shape of the fitted curve or compound fluorescence and quenching.

CCCCCCCCCC(=O)N(C)C
inconclusive: Potency [1] 1760 nM [rising, partial curve, poor fit] | Potency [2] 69600 nM [rising, partial curve, poor fit]
inactive: Potency [3] | Potency [4]

Cc1cc(=O)c2c(O)c3c(O)cc(=O)c4c3c3c(cc(O)c1c23)C(C)(C)C=4O
active: Potency [11] 1840 nM | Potency [13] 1840 nM | Potency [14] 731 nM
inconclusive: Potency [1] 461 nM [cytotoxic, full curve] | Potency [2] 10300 nM [rising, partial curve] | Potency [5] 580 nM [cytotoxic, full curve] | Potency [6] 1160 nM [cytotoxic, full curve] | Potency [7] 4110 nM [rising, partial curve] | Potency [8] 1300 nM [cytotoxic, full curve] | Potency [9] 2310 nM | Potency [10] 3660 nM [rising, full curve] | Potency [12] 20600 nM [rising, partial curve, poor fit]

CC/C=C1/OC(=O)c2ccccc21
inconclusive: ratio activity, negative = inhibition [15] -5.92%
inactive: Potency [11] | Potency [16]
